# Assay results from the supplement of paper PMC11417369.
# ± gives the standard deviation of the averaged measurements. The list shows a part of the results.
# System: PfAP2-LT AP2 domain (GST-tagged)
# Experiment: gcPBM binding intensity (ln(normalized median fluorescence intensity)); higher = stronger DNA binding
# How it was run: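 Binding intensity values are the highest Masliner-normalised natural-log median intensity among replicate spots of either probe orientation. The binding step lasted 1 h in 1× PBS with 1% milk, 0.2 mg/ml BSA, 0.5% salmon testes DNA and 0.03% Triton X-100, using GST-tagged P. falciparum DNA-binding domains expressed in E. coli on an Agilent 4 × 180k array of primer-extended double-stranded 36-bp intergenic genomic probes plus negative controls. Alexa488 anti-GST antibody and a 488 nm scan detected bound protein.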
row,Sequence,gcPBM binding intensity (ln)
1,TATATATATATATGTAGTACTTTACAAAATAATTCG [XGTACX_site5322],9.06 ± 0.13
2,TAGTTATCACATTGCACACACATTTCCTTTTACATT [CACACA_site7589],9.51 ± 0.31
3,TTATTTATACGCTATGAGTTTGATACAAACAATTAA [XGTACX_negctrl_site456],8.54 ± 0.26
4,TTTTTACGGAATTAGAGAAAAGAAATAAAAAAAAAA [XGTACX_negctrl_site436],8.07 ± 0.54
5,TTTATATTTATGTAGGTGCATTTGTTTACAACATAT [GTGCAC_site9511],8.87 ± 0.49
6,AATAAATTCATGATAGTGCAAAAATTATTTTTGTTA,8.6 ± 0.44
7,GCATAACCTTTATATTGTACATATACCTTTATTGTT [XGTACX_site6046],9.24 ± 0.42
8,AAAGATGATAAAATATGTACACACAGTTTATACATT [XGTACX_site8703],8.98 ± 0.38
9,TGAGTCTTTTACATTGCACACACATTTCTTTCCTTT [CACACA_site8978],9.66 ± 0.35
10,ATTATCCATCAAAAGGTGCAAATTTTTAATTATAAA [GTGCAC_site9932],8.52 ± 0.45
11,ATATATGTATATATGTACATGAATATATAAAGAAAA [CACACA_negctrl_site315],9.01 ± 0.52
12,ACAAATAAATAAATATGTACTTAATTATATAATTGA [XGTACX_site5626],8.5 ± 0.34
13,TATTTATACTAATATGCATGTAATCGAAATACAGCT [TGCATGCA_site457],8.77 ± 0.33
14,GTTTATATTTAATTTTTTTGTTTTTTTGTGTAATTC [XGTACX_negctrl_site194],8.74 ± 0.59
15,ATATATATAAACAAAAGTACATATATAAATTCATTT [XGTACX_site3482],8.71 ± 0.43
16,TCTTATATTATATTGTGTATTAAAATTTAACTTCAA [TGCATGCA_negctrl_site565],8.46 ± 0.53
17,TTAAAGTTACATTCGACACACACATAACAACTAAAT [CACACA_site9130],9.36 ± 0.31
18,AATAAAAAAAAAATATATATTTTTTTTTTTTTTTTT [CACACA_negctrl_site54],8.39 ± 0.27
19,ATCTATTCACACTTTTAAAAATTAAATATATTATAT [TGCATGCA_negctrl_site610],8.52 ± 0.44
20,TAATTTTTTTTTTATAGTACACATATTAAAGAATTA [XGTACX_site2485],8.16 ± 0.24
21,CAAATACATAGACACACACACATATACATATTTATA [CACACA_site7610],9.86 ± 0.5
22,GAATAAAGGAGAGGCACACATATATATATATATATA [CACACA_site2452],10.04 ± 0.085

row,Sequence,gcPBM binding intensity (ln)
1,TATTTGATAAATTATACACACACAATATATATAAAA [CACACA_site8625],9.2 ± 0.3
2,TTTATATTTAAATGCATGCACTTTCTATTTTTTTTT [GTGCAC_site9959],9.13 ± 0.53
3,GAGGATCATCAATTCACACACATAAAAATGAAGTTA [CACACA_site3078],9.13 ± 0.5
4,TATATAAAATTCTATTGTACATGTTATACGAAAGAA [XGTACX_site5711],8.53 ± 0.35
5,CAACGATACAAAAAAGGTACACATATATATATATAT [XGTACX_site8688],9.86 ± 0.014
6,CAATTTTCTAATGAAACATGCAAAATAAAATTTTAT [TGCATGCA_site13],8.39 ± 0.4
7,TTCTTTTTAATGTCGGTGCAACTCCATAAAAACAAA [GTGCAC_site9488],8.22 ± 0.35
8,TTTGTAGCACTTAAGAGTACAAAATGTATAAGATTT [XGTACX_site2321],8.71 ± 0.47
9,TTAATATAATTAAAATGTACTTATTTGTAAACATTA [XGTACX_site6313],8.15 ± 0.52
10,GACCATGTTAACAAAGCATGCATCTCTATATGTTTA [TGCATGCA_site358],8.88 ± 0.38
11,ACATAAAATAAATATACACACATATGTATATATCAT [CACACA_site7424],9.2 ± 0.36
12,AAGAAAAACAATACGTGTACCAAGCATCCTACTAAC [XGTACX_site6628],9.06 ± 0.42
13,AAAAAAAAAAGAAAGAGTACTTTTTCAATACATATA [XGTACX_site2468],8.31 ± 0.52
14,TTATTTTATAAATCGAAAACAAACAAAAAAAAGATA [XGTACX_negctrl_site178],8.48 ± 0.33
15,TTGCTGTATTTATTTTGTACACATTTGGCATTATAT [XGTACX_site3408],9.19 ± 0.38
16,AACAAACACAGACACACACACACACTAATATGATTA [CACACA_site8770],10.2 ± 0.45
17,ATATACTATTATGTGTGTACATAATAATTTATTATA [XGTACX_site3776],8.91 ± 0.37
18,TCATACATTTTCCTTGCACACATTTATAATTAATGG [CACACA_site4511],9.11 ± 0.37
19,TAAAACAAAAAAAAGATGCACTATTTATTTTATTAT,8.46 ± 0.43
20,AAAAAAATATATATATATATATATATATTATATATG [GTGCAC_negctrl_site654],8.99 ± 0.29
21,TTTAAAAAAAAAAAAAAAAAAAAAAAAAAAAATTTG [CACACA_negctrl_site1235],7.96 ± 0.53
22,TAATTATAGGTATACACACACATACATTTACATAAC [CACACA_site7509],9.46 ± 0.36
